# Hit rate of the full screen: of about 310,000 compounds, about 14,000 (4.5%) showed an effect of 50% or more. The effect is printed as a negative number. Some of the results follow.
# Target: human ether-à-go-go-related gene (hERG) potassium channel (human, UniProt Q12809)
# Test: primary screen, population patch clamp on CHO cells stably expressing hERG
# 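Further: peak tail current of the secondary pulse compared with the same well before compound.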
# Chain of human ether-à-go-go-related gene (hERG) potassium channel (Q12809 whole entry, looked up): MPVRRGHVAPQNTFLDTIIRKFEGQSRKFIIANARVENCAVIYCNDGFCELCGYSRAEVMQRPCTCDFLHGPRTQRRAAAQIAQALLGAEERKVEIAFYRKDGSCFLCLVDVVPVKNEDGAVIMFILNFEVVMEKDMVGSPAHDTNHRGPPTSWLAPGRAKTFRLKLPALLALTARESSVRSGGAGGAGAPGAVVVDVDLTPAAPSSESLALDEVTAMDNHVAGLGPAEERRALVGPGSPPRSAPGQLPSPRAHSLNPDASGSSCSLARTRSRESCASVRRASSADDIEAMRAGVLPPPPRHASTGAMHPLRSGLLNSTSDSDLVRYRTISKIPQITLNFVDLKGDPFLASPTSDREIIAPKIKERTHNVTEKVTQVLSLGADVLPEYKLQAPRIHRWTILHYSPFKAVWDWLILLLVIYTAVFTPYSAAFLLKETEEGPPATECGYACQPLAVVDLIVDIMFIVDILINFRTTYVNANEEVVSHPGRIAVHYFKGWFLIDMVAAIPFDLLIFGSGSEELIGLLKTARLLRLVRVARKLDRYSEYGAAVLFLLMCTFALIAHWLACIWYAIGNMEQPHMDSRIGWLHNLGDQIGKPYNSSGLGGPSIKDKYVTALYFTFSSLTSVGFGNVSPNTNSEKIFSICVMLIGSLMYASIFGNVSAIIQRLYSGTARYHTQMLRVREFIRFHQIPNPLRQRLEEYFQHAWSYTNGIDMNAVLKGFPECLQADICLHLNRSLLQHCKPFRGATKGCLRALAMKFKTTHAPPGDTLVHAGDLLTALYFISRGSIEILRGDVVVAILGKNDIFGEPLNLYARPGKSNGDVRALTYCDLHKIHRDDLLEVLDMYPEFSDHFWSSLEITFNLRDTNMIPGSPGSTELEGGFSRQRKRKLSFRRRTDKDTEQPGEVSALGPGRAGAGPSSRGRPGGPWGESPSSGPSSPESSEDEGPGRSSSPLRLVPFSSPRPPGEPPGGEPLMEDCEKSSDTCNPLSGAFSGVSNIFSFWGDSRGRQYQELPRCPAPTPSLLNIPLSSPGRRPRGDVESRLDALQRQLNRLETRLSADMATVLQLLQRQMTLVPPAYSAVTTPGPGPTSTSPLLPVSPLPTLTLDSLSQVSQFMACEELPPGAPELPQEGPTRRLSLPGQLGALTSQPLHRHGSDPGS
row,Structure (SMILES),"hERG current change (%, negative = inhibition) at 10uM [%]"
1,COc1cc(/C=C(\NC(=O)c2ccccc2)C(=O)N2CC3CC(C2)c2cccc(=O)n2C3)cc(OC)c1OC (centres unmarked),14.8
2,CN(C)c1ccc(N=Nc2ccccc2C(=O)OCC(=O)N2CCCCCC2)cc1,0.421
3,O=C(Nc1ccc(Br)cn1)C1CCCN1S(=O)(=O)c1ccccc1 (centres unmarked),-42
4,CN(C/C=C/c1ccccc1)Cc1cccc2ccccc12.Cl,-43.2
5,Cc1ccc(N2CC(C(=O)N/N=C/c3c(F)cccc3Cl)CC2=O)cc1 (centres unmarked),-13.7
6,COc1ccc(-n2c(SCC(=O)O)nc3sc4c(c3c2=O)CCCC4)cc1,20.3
7,O=S(=O)(NCCC1=CCCCC1)c1c(Cl)cccc1Cl,1.38
8,O=C(NCc1nnc2c3ccccc3c(-c3ccccc3)nn12)c1ccc(Cl)cc1,-52.4
9,Cc1nn(CC(=O)Nc2ccc3c(c2)nc(CN2CCCC2)n3C)c(=O)c2ccccc12,-13.4
10,CC(=O)Nc1ccc(S(=O)(=O)NC(CC(=O)N2CCC3(CC2)OCCO3)C(C)C)cc1 (centres unmarked),18.9
11,Fc1ccccc1N1CCN(C2CCCN(Cc3ccccc3C(F)(F)F)C2)CC1 (centres unmarked),-5.91
12,Cc1cc(NC(=O)Nc2cccc3ccccc23)no1,4.13
13,CCOC(=O)C1=C(c2cccc(Oc3ccccc3)c2)NC(=S)NC1C (centres unmarked),-15.8
14,CC(=O)Nc1ccccc1C(=O)C(=O)Nc1ccc(F)cc1,-0.577
15,O=C(Nn1cnnc1)c1cc2cc(Br)ccc2oc1=O,-5.57
16,COc1ccc(CCNC(=O)CSC2=NS(=O)(=O)c3ccccc3N2)cc1OC,-6.03
17,Cc1ccc(C(=O)C2CCN(S(=O)(=O)c3ccc(C(=O)O)cc3)CC2)cc1,7.93
18,O=C(Oc1cccc2ccccc12)c1ccncc1,-1.26
19,O=C(NCc1ccco1)c1csc(Nc2ccccc2Cl)n1,-63.1
20,NC(=O)c1ccc(N2CCN(c3ccc(O)cc3)CC2)c([N+](=O)[O-])c1,-33.4
21,C/C(=N\NC(=O)CSc1nc2ccccc2c(=O)n1-c1ccccc1C)c1cccs1,6.94
22,CC(=O)N1N=C(c2ccccc2O)OC1(C)CC(=O)Nc1ccccc1 (centres unmarked),-3.99
23,CCc1ccc(/C=C2/SC(=S)N(CCC(=O)Nc3cccnc3)C2=O)cc1,7.33

# — publication PMC4336329 (PLoS ONE, 2015)
